# Over roughly 33,000 sequences, “E-score (-0.5 to 0.5)” has its median near -0.041; the highest 2% begin near 0.37. Some of the results follow.
# Target: T1, Ecm22 (UniProt Q05958)
# T1 sequence: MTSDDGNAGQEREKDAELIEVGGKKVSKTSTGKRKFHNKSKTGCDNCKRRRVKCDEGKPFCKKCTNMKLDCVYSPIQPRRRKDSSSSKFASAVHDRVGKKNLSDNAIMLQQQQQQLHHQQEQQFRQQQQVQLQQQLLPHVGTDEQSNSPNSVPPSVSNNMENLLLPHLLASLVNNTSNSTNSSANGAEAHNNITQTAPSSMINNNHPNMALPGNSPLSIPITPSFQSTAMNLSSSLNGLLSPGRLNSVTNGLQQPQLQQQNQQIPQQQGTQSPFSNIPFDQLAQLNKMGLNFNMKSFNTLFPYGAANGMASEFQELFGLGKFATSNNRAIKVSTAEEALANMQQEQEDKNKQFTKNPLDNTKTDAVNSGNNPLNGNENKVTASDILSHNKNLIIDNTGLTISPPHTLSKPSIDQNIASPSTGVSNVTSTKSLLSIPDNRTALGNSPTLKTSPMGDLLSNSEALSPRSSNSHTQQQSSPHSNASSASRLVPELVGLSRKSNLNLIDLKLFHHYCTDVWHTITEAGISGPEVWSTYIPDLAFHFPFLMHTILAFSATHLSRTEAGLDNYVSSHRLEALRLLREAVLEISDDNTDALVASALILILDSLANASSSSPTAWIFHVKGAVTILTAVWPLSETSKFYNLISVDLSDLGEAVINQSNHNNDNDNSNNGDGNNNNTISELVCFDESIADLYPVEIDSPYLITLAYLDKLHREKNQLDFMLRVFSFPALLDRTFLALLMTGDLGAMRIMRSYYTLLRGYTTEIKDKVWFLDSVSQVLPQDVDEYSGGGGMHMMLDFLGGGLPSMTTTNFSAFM
# Test: PBM E-score (8-mer binding enrichment) (E-score (-0.5 to 0.5)); higher = stronger / more preferred TF binding; most listed sequences are background and not binding sites
# Settings: protein concentration: 200 nM; construct: GST-full length
# In short: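 Masliner-normalised scans of fluorescent anti-GST signal were the basis for scoring. That signal came from GST-tagged yeast transcription factors applied at about 100-200 nM to double-stranded universal all-10-mer Agilent arrays on fresh or once-stripped slides. Each ungapped eight-base word, pooled with its reverse complement, received an E-score from the Universal PBM Analysis Suite.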
row,Sequence,PBM E-score
1,GGAGTGCA,0.0316
2,GTAAATAC,0.152
3,AGTGAGCG,-0.0993
4,AAGCAAGC,-0.00208
5,GAAAAGTA,-0.0331
6,AGCATGGG,-0.291
7,GAATGAGA,-0.255
8,CTTGGGCA,-0.197
9,GCTCCCCA,-0.0815
10,ATGGCACG,-0.128
11,CAACATGG,-0.18
12,ACCCTGCA,0.00985
13,ATAGATTC,0.00042
14,ATACGTAT,0.374
15,AACGATTA,0.382
16,ATCGGCGA,-0.129
17,GGGACGTA,-0.0009
18,AAAAGTGT,-0.166
19,AATTACCA,-0.123
20,GCCCATAA,-0.142
21,CGCTTACA,0.151
22,GAATCGAC,0.163
23,CTAACCTA,-0.0507
24,GAGACTGA,-0.221
25,CTGTAGCC,-0.238

row,Sequence,PBM E-score
1,ATTATGTC,0.0663
2,GGGCAGGA,-0.171
3,AAGCTTCC,-0.2
4,TGTAGCAA,-0.103
5,GCTCACCA,-0.237
6,TAGTTTAA,0.115
7,AGTGGCCA,-0.14
8,CATGCATG,-0.382
9,AACTCATT,-0.154
10,CTAAGTAG,-0.232
11,AGAATACC,0.066
12,AGTACCGG,-0.102
13,GACCGGGC,0.0834
14,GAGGTCGC,0.0249
15,CGAGACTC,0.235
16,GCGTAGCA,0.0406
17,TAACCCTA,-0.0664
18,ACCGCCGT,0.17
19,GCAATGCC,-0.159
20,CCACGTAA,0.065
21,ACCGGATC,-0.0309
22,GGACAAGA,-0.103
23,ATATTCAA,0.0664
24,CCTAAGAA,-0.0994
25,GTCCCCCA,-0.157

row,Sequence,PBM E-score
1,CCACTCCG,0.019
2,AAGGTTGG,-0.0277
3,GATTGAGA,-0.0525
4,GTATTGGA,-0.0292
5,AAGCTACG,0.218
6,CTTAGTCA,-0.192
7,AACGATAC,0.389
8,GCCGAAAC,0.0737
9,AATTAGAT,0.158
10,GCATCGCA,0.0137
11,GATAGTCC,-0.143
12,GCCATGTA,-0.0931
13,TAATAACA,0.0792
14,ACGATCCA,0.329
15,CAGTAATC,-0.143
16,AGACAAAG,0.0946
17,AACTTTAT,-0.0369
18,ATTTTACG,0.392
19,CGAATGAG,0.109
20,ACTGACAT,-0.124
21,GGCTAAAA,-0.217
22,CCTCTAAC,-0.0433
23,AGACGAGA,0.166
24,ATAGATCC,-0.0425
25,ATAATGGA,-0.193

row,Sequence,PBM E-score
1,GGCAAGTA,-0.243
2,AATAAAAC,0.0428
3,CATGATTC,-0.106
4,GTCAGAAA,-0.119
5,ACACAACC,0.0118
6,CGTGCAGC,-0.0705
7,ATTACTAA,-0.0453
8,GGGGGCCA,-0.188
9,ACCCATTC,-0.0208
10,ATACTATG,0.0425
11,ACATGCTG,0.0658
12,GTATTCCA,0.0764
13,CGAAGTGC,0.197
14,CCTAGGCG,-0.215
15,TTACTAAA,0.152
16,AATTCACA,0.0464
17,GACGGGGC,0.0935
18,CAACGTTA,-0.00116
19,CTACACAC,-0.137
20,CCCGTAGC,0.154
21,AATAAGCG,0.0338
22,CATTTCCG,0.0483
23,ACCCCACA,-0.178
24,AAGGGTGC,-0.309
25,TAGTCTCA,-0.0764

row,Sequence,PBM E-score
1,CGTTAGGC,0.0897
2,CAAAAAGA,-0.152
3,CCCGCCAG,0.0747
4,CTACGACA,0.347
5,ACCCAGAG,-0.00161
6,CTCGGAGC,0.0833
7,AACCTACT,-0.063
8,AGCTCCAA,-0.15
9,CCTGGCAA,-0.235
10,GGCCTCGA,-0.196
11,ATTACCGC,0.0569
12,GTCACTAA,-0.00743
13,GCTTCCCC,-0.098
14,ATCAACCC,0.108
15,AGGCGCGA,-0.00125
16,TCAAGGGA,-0.14
17,GGAGATCC,-0.112
18,TTGCAAAA,0.0789
19,AATGTCTA,-0.126
20,CACCGACC,-0.116
21,CAAGCAAG,-0.0582
22,ACTGCGAT,-0.121
23,AGACCGCA,-0.0494
24,AATGTTAA,-0.238
25,CATTTGGA,-0.138

row,Sequence,PBM E-score
1,AGAGTTCA,-0.245
2,CTAAGTTC,0.0786
3,AACATATA,0.0873
4,AGGGCTGG,-0.23
5,CGGGGGGA,-0.227
6,GACCCGTC,-0.0698
7,GTTTGGAA,0.17
8,CGCTTCCA,-0.0544
9,ATTTTACC,0.06
10,CGCGACAC,0.0771
11,GGACAGAC,-0.0959
12,ATAGGCGG,-0.0579
13,CGAGGAAG,0.175
14,ACCACGTA,0.214
15,GAAGGATC,-0.11
16,AGTGCGTA,0.14
17,GACAGTGC,0.0371
18,ACTTCTCA,-0.145
19,CAATACCG,-0.0825
20,CGTGAGCA,-0.0373
21,CCTTATGA,-0.00603
22,CCTTTCAG,-0.0395
23,CAAGTTAC,-0.0149
24,GGAGCGCA,-0.22
25,ATCATCTG,-0.00905

row,Sequence,PBM E-score
1,ACCATTTG,-0.0622
2,AAGATTTC,0.0425
3,TCAGACCA,-0.135
4,GAACTAAA,0.0893
5,AGCTTGAA,-0.209
6,CAGTCCCG,-0.0674
7,CGTGTCAA,-0.282
8,GCGATTAA,0.124
9,AACTATAT,0.0975
10,AGTAGCTG,-0.0961
11,CGTGCTAG,-0.0992
12,GAGGCGTA,0.155
13,GCGCATTA,0.0458
14,AGATCTTA,-0.0601
15,GTTACTCA,0.0484
16,CTTGCGCA,0.0373
17,CCGACGGC,0.129
18,CGGGATGC,-0.00151
19,CGTGATGC,-0.0688
20,CGACGGAC,0.109
21,GATGTGTA,0.117
22,CCATTGGA,-0.162

# Source: the supplement of paper PMC3334620
